According to publication PMC4336329 (PLoS ONE, 2015):
The whole screen tested about 310,000 compounds, of which about 14,000 (4.5%) showed an effect of 50% or more. The effect is printed as a negative number. The list shows a part of the results.

Each molecule was assayed against human ether-à-go-go-related gene (hERG) potassium channel (human, UniProt Q12809) (assay: primary screen, population patch clamp on CHO cells stably expressing hERG).
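Further: peak tail current of the secondary pulse compared with the same well before compound.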

Sequence of human ether-à-go-go-related gene (hERG) potassium channel (Q12809 whole entry, looked up): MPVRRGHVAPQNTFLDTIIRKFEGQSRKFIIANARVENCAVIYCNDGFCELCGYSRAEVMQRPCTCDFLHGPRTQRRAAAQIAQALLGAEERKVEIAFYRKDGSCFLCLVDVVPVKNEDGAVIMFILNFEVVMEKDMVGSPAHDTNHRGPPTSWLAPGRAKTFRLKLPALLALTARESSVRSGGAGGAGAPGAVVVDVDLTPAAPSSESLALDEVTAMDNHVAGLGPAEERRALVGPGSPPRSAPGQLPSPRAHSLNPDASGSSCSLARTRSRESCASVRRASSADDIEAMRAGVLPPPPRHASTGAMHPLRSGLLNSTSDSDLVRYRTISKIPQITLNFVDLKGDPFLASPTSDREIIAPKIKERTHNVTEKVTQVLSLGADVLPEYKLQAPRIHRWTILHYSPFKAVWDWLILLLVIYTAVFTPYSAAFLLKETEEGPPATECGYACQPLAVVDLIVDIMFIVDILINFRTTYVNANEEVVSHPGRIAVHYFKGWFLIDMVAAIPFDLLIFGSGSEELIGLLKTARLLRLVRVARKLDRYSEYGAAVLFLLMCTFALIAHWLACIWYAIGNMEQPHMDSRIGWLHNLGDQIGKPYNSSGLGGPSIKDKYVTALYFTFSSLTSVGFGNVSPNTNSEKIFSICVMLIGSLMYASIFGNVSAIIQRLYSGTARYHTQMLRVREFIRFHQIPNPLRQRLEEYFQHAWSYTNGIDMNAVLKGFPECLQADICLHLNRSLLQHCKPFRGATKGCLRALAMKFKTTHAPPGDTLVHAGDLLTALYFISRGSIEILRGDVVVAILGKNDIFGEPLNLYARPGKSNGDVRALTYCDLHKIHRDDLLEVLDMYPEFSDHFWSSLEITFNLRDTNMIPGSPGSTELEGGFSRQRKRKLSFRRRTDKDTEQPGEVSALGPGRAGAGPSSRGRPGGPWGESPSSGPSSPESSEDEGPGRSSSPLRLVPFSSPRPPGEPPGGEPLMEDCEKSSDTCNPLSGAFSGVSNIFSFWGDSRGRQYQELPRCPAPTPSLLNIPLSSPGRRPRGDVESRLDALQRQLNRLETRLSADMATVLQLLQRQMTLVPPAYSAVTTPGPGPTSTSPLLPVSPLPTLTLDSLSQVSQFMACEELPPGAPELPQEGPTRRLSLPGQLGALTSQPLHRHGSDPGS

Row | Structure (SMILES) | hERG current change (%, negative = inhibition) at 10uM [%]
1 | O=C(CCc1ccccc1)NNC(=S)NC(=O)c1ccc(Cl)cc1 | 8.15
2 | O=C(O)CCN(Cc1ccccc1)S(=O)(=O)c1ccc(Cl)cc1F | 7.65
3 | Cc1cc(C)n2nc(C(=O)OCC(=O)N(C)C3CCCCC3)nc2n1 | 4.17
4 | CCOC(=O)C1C(C(=O)OCC)C1(c1ccccc1)c1ccccc1 (stereo not shown) | 0.621
5 | CCN(CC)S(=O)(=O)c1cc(NC(=O)C2=COCCO2)ccc1Cl | -8.41
6 | CC1(C)Cc2c(sc(/N=C/N3CCCC3)c2C#N)C(C)(C)N1 | -19.2
7 | COc1ccccc1OCCSc1nc(C)c(Cc2ccccc2)c(=O)[nH]1 | 22.8
8 | Cc1ccc(-c2csc3ncnc(-n4cnc5ccccc54)c23)cc1 | -25.6
9 | CC(C)(C)c1ccc(S(=O)(=O)NCc2ccc(C(=O)N3CCOCC3)cc2)cc1 | -0.293
10 | Cc1ccc(C)c(NC(=S)NNC(=O)c2csc(C(C)C)c2)c1 | -1.77
11 | COc1ccc(OC)c(NC(=O)C23CC4CC(C2)CC(n2cnc(Br)n2)(C4)C3)c1 | -41.2
12 | Cc1cccc(NC(=S)N/N=C2/CCCCc3ccccc32)c1 | 15.2
13 | COc1ccccc1N1CC(C(=O)Nc2ccc(N3CCOCC3)cc2)CC1=O (stereo not shown) | 15.1
14 | Cc1cc(=O)oc2cc3c(cc12)OCO3 | 11.8
15 | O=C1CN(C(=O)c2cccc([N+](=O)[O-])c2)CC(=O)N1 | 13.4
16 | Cn1c(NC(=O)/C=C/c2ccccc2)cc(=O)n(C)c1=O | -3.21
17 | Cc1ccc(S(=O)(=O)N2CCOCC2)cc1C(=O)N1CCCCCC1 | -13.4
18 | O=C(O)C=C(Br)Br | 3.44
19 | CNC(=O)c1[nH]cnc1C(=O)Nc1cccc(OC)c1 | 2.87
20 | COc1ccc(C(=O)Nc2ccnc(-c3cccnc3)n2)cc1 | -21.7
21 | c1ccc(CNc2ncnc3nc[nH]c23)cc1 | -4.7
22 | O=c1cc(-c2c(F)c(F)c(F)c(F)c2F)oc2ccccc12 | 17.7
23 | CCCCn1c(N)c(N(CCOC)C(=O)CC(NC(=O)c2ccccc2)c2ccccc2)c(=O)[nH]c1=O (stereo not shown) | -24.6

Row | Structure (SMILES) | hERG current change (%, negative = inhibition) at 10uM [%]
24 | COc1cc2c(cc1OC)C(C)N(C(=O)c1cccs1)CC2 (stereo not shown) | -4.17
25 | Cc1ccc(S(=O)(=O)N2CCN(C(=O)CSc3nnc(C)s3)C2)cc1 | 10
26 | Nc1nc(N)nc(-c2cccc(Cl)c2)n1 | 1.8
27 | Cc1nc2c3ccccc3[nH]c(=O)n2n1 | -5.96
28 | CNc1nc(C)c(C(C)(C)C)s1 | 14.3
29 | CCOc1cccc(-c2nnc3sc(COc4ccccc4)nn23)c1 | -12.2
30 | CC(=O)N1CCN(C(=S)NCCc2ccccc2)CC1 | -4.66
31 | COc1ccc(CC(=O)Nc2nnc(SCc3ccccc3)s2)cc1S(=O)(=O)N1CCOCC1 | -10.8
32 | Cc1ccc2c(Cl)cc(Cl)c(OCc3c(C)noc3C)c2n1 | 8.92
33 | FC(F)(F)c1ccc(Cl)c(NC(=S)N/N=C/c2ccccc2C(F)(F)F)c1 | 20.2
34 | Cc1ccc(C(=O)C(C)OC(=O)Cc2n[nH]c(=O)c3ccccc23)cc1C (stereo not shown) | -15.6
35 | CCOc1ccc(S(=O)(=O)Nc2cccc(C(=O)N3CCN(c4ccccc4O)CC3)c2)cc1 | 3.16
36 | CCN1CCN(CCC(=O)Nc2ccc(F)c(F)c2)CC1 | -17.1
37 | O=C(NCc1ccccc1)c1cc(-c2cccc(O)c2)on1 | 1.09
38 | O=C1Nc2ccccc2C1(O)Cc1ccncc1 (stereo not shown) | 2.55
39 | Cc1cccc(NCCC(=O)c2ccc(Br)cc2)c1 | 2.95
40 | CC(C)Cn1nc(NC(=O)C2CCCO2)c2cc3ccccc3nc21 (stereo not shown) | -14
41 | CN(c1ccccc1)S(=O)(=O)c1ccc(Cl)c(C(=O)NCc2ccccc2CN2CCCC2)c1 | -65.9
42 | COc1ccc(-c2cc(C(=O)N3CCN(c4ccccc4O)CC3)c3ccccc3n2)cc1OC | -40.7
43 | Cc1cccc(-n2cnc(C(=O)N3CCN(C)CC3)c2)n1 | 24.1
44 | CCCOc1ccc(C2c3c(oc4ccccc4c3=O)C(=O)N2CCCN2CCOCC2)cc1 (stereo not shown) | -6.76
45 | CCOc1ccccc1OCC(=O)OCc1csc(CC(=O)Nc2ccccc2C)n1 | -15.2
46 | COc1ccc(N2C(=O)C(CC(=O)Nc3ccc(F)cc3)N(CCc3ccc(OC)c(OC)c3)C2=O)cc1 (stereo not shown) | -32.9
